Source: PMC10668032
The other results are listed elsewhere or left out. At the low end of the ranking the order means little.

Target: SIX1 homeodomain (reference allele) (UniProt Q15475)
Test: universal protein binding microarray
Settings: Universal all-10-mer PBM (8x60K, AMADID 030236), 300 nM GST-tagged protein, Alexa Fluor 488 anti-GST; buffer, salt, pH and temperature not stated; high values mean tight binding; most listed sequences are background and not binding sites; double strand, one strand shown

Sequence	binding signal
GTGGTCCA	-0.091 E-score
ACATGGGT	0.0605 E-score
ACAGACGT	-0.0908 E-score
CACGTAAG	-0.0955 E-score
ATTCTACG	0.0699 E-score
CTTCAATA	0.0399 E-score
ATTCGTTC	-0.169 E-score
AGTATTGG	0.204 E-score
ACAAGCCA	-0.282 E-score
AATCCTAC	0.0174 E-score
CTGACTTC	-0.105 E-score
CTTATGCA	-0.00105 E-score
AACGCTAA	-0.358 E-score
GGTCAATA	0.0794 E-score
CGGGATTC	0.0752 E-score
AAACCACG	0.0434 E-score
GTTCCATA	-0.0388 E-score
AGACTATA	0.204 E-score
GCACTCCA	-0.204 E-score
TCATCAAA	-0.0525 E-score
CGGACTAC	-0.0789 E-score
ATATTGCA	0.221 E-score

Sequence	binding signal
ACAGATTG	0.052 E-score
GCATTCGC	-0.00992 E-score
GGCTCGTA	0.08 E-score
GAATGACC	-0.00573 E-score
ATTGCCGG	-0.104 E-score
AGCATTAG	-0.163 E-score
CTTACTGA	0.14 E-score
CCAGCCAG	-0.246 E-score
GCAATCAC	-0.0464 E-score
AGTTTGAA	-0.208 E-score
AAACAGCC	-0.203 E-score
ACCCGTTA	-0.00991 E-score
GCCATTGA	-0.015 E-score
CTCGCGAA	-0.215 E-score
AAGCCAGT	-0.111 E-score
AGCTGTCG	-0.127 E-score
ATGGACGA	-0.0832 E-score
ATGCATGC	-0.00552 E-score
CCTTCCAG	-0.0762 E-score
CAATTAGG	0.0942 E-score
ATCTGCCC	0.182 E-score
GACAGCTA	-0.12 E-score

Sequence	binding signal
GACAATCA	-0.0986 E-score
AGGGGCAT	0.0649 E-score
CGAGGATC	0.333 E-score
CGCTTCTC	-0.014 E-score
ATCTACCA	0.206 E-score
AGGCGGAT	0.346 E-score
ACAAACAT	-0.0932 E-score
AGTCTTAA	-0.201 E-score
TCTAGTAA	-0.122 E-score
AACGGCCC	-0.187 E-score
GTCTCAGA	0.0717 E-score
ATGAGAGG	0.0353 E-score
AGGCGGCG	0.0226 E-score
CATTGGGG	0.108 E-score
AGATGGAG	0.133 E-score
GGATTTCA	-0.0304 E-score
GTACTAAA	-0.0983 E-score
GTTTCGAA	-0.0623 E-score
AAGCAATT	-0.2 E-score
CACATCTG	0.132 E-score
TACCGTAA	0.0137 E-score
AGTCCACT	-0.148 E-score

Sequence	binding signal
CCGGCTAG	0.0506 E-score
GATAGTTA	0.153 E-score
AACCGTAA	-0.201 E-score
ACTAGTGA	-0.0991 E-score
ATTCGAGA	0.0416 E-score
AGATCCAG	0.285 E-score
CACTGACA	0.00724 E-score
CGCATAAA	-0.116 E-score
ACGTTTAA	-0.0447 E-score
GAGTAATA	0.204 E-score
ATCTTGAA	0.0101 E-score
ACTCAATA	0.0986 E-score
CTTACAAC	-0.126 E-score
CTATGCGC	0.0176 E-score
CCGGTTTC	-0.00851 E-score
CTCGAACA	-0.2 E-score
CATCAGAG	0.0622 E-score
CGAAAGCA	-0.122 E-score
TAGTTGCA	-0.0447 E-score
AGCAGCGG	-0.153 E-score
